Experimental data from the supplement of paper PMC11417369.
This is one part of the list.

test system: PF3D7_0420300 AP2 domain 1 (GST-tagged); experiment: gcPBM binding intensity (ln(normalized median fluorescence intensity)); higher = stronger DNA binding
How it was run: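 An Agilent 4 × 180k array carrying primer-extended double-stranded 36-bp intergenic genomic probes and negative controls received GST-tagged P. falciparum DNA-binding domains expressed in E. coli, about 25 μg on average, for 1 h. The binding buffer contained 1× PBS, 1% milk, 0.2 mg/ml BSA, 0.5% salmon testes DNA and 0.03% Triton X-100. Binding intensity is the top Masliner-normalised natural-log median intensity across replicate spots of either probe orientation, read after Alexa488 anti-GST antibody staining and a 488 nm scan.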

Sequence	gcPBM binding intensity (ln)
TAAGAAATAAATAGTACACACATAGACACCCACCGA [CACACA_site1516]	9.88
CAGTTTAATTTACATAGTACATAATATTTTAATTTT [XGTACX_site1793]	9.13
GTAATATTAATATAATGTACAAAATGAAACATATAT [XGTACX_site6219]	9.41
ACAATATTATTATTTAACCATACACAATTATATGTC [XGTACX_negctrl_site378]	9.25
CAAAAAGATAAGGTGTGTACGTATTATAATTTTAAA [XGTACX_site531]	9.45
ATTTAATTTTCCAAATGTACTTATATTTTTATGAAA [XGTACX_site6144]	9
TGAAATGATCTTTAGTTGCACTTAAAAATATATATA	8.87
GGTATATAAAAATATTGTACTTAAAAAAATATGTAT [XGTACX_site6253]	9.26
TATTTCACTTTTTGTCTGCACTAAAATTTTATGGTA	9.27
TAGATACATAAACACACACACACATACATATATACA [CACACA_site9139]	10.3
TTTTGACTAATATAATATGTTAAGAATTAATAAATA [XGTACX_negctrl_site35]	8.8
AAAAAAAAAAAAAACACACACATATATATAATATAT [CACACA_site3172]	9.79
AAGTATAGTCTTACATATATATATATATATATATAT [GTGCAC_negctrl_site280]	9.15
ATAAAACAAAGACACACACACATACACAAAAAAAAA [CACACA_site7752]	10.2
TATCTACTTAAATAAAATAAAAATAATAAATAAAAA [TGCATGCA_negctrl_site312]	9.13
AATAATCATGATCATAGTACGTATGAATACAAAAAA [XGTACX_site265]	9.35
ATGTATAATATTTTCACACACAAGAAAAAAGAAAAG [CACACA_site3591]	9.72
CGTATGTATATATATATACACACTTCTGTGATACGA [CACACA_site1949]	9.33
TTTTATTTATTCCTACTTTTTTATTTATTTATTTAA [XGTACX_negctrl_site415]	9.42
ACATTATGTCATAAATGTACACATACATATACATAC [XGTACX_site8998]	9.35
AAATGAATTTAACAATGTACACATATATTATAAATA [XGTACX_site1449]	9.16
TAAGTCAAAACTTTTTTTTCTAAATTTCCATAATTA [GTGCAC_negctrl_site29]	8.78

Sequence	gcPBM binding intensity (ln)
ATATACATTCTATATACATGCATACTTCATTTTGTG [TGCATGCA_site966]	9.54
ATATATATATGTATATGTACTCATTCTTCTGTGTTT [XGTACX_site5014]	9.57
AAAACGATTTTTTGCACACACATAATAAGCAGAACA [CACACA_site3871]	9.79
TACATAATAATAAGGCGTACATAAAAATTAAAAATT [XGTACX_site8769]	9.43
TCTTTATCCTTTCTCTTTTTATTAATTATAATATTC [TGCATGCA_negctrl_site584]	9.51
ATTATTTGTAATATAACACACACAAAAAAAGACTCG [CACACA_site8487]	9.77
ATTAATTATGTATTTCAACAAAGAAGTGTTATATAT [GTGCAC_negctrl_site215]	9.18
ATTATACCGTATTTTGCATGTAGTATTTTCATTTTA [TGCATGCA_site1021]	9.83
AAATGTACAGGACGCACACACATATATATATATATA [CACACA_site3674]	9.66
AAGGAAAATATTAACTGTACATATAAAATATATATA [XGTACX_site5310]	9.23
ATATATACCTAAGACACACACATATATATATATATA [CACACA_site764]	9.64
TATCATTTATATATGTGTACTTATTTATTTATTTAT [XGTACX_site7961]	9.5
AAAGAAAATTAAAAAGAACACACAAATATATATATA [CACACA_site9196]	9.67
ATTTATATATATTTATGTACGTATTAATTTTTTTTT [XGTACX_site3877]	9.48
AATGAATCCTTATATACACACATTATTATAGTATAG [CACACA_site7454]	9.57
ACGTAATTAATTCATCAGATATAATTAATAATAATA [XGTACX_negctrl_site550]	9.02
ATAAATTTTTTTTTTTTTTTTTTTCTTTTTCTTTGT [CACACA_negctrl_site1231]	9.03
ACTAAAGTGTATCACTGTACAATTCTTCTCTTTTTT [XGTACX_site8705]	9.23
AATATATTTGTGTATGTGCGCAGTGTGTAATTTATT [GTGCAC_site9765]	9.73
CATCTCATATTTTGAAGTACTAAGAAAAGATATAAA [XGTACX_site6867]	9.06
TCAATAATAACAAATGAACACACATATATATGAGCA [CACACA_site8663]	9.71
AGAAAAAAATAATGTACACACACATAGATGTTTATA [CACACA_site4271]	9.63

Sequence	gcPBM binding intensity (ln)
AAAAAAAAAAAAAAAAGTACACAGTAGAATTAAATG [XGTACX_site1843]	9.5
TTTTTTTTTTAATTAACACACATAAATATATATATA [CACACA_site3275]	9.26
ATAAGTAAATTAGATACACACATGATATCATACATA [CACACA_site1623]	9.51
GAACAATAAATAAAAAAAATAAAAATAAAAATAAAA [TGCATGCA_negctrl_site35]	9.2
TGAAATACGAATTATTGTACTTATGTGTAAGATGGC [XGTACX_site4472]	9.43
AAAGAAAGTACCTTCACACATATAAGAATATAATAT [CACACA_site5214]	9.27
AAAAAAAAAATATATTGTACAAATAGATATGTCAAT [XGTACX_site122]	9.23
AATATATTTTAATATACACACATATATGCTCTTTAA [CACACA_site9371]	9.44
TTATTTTTTTTGTGTTGTACAATTTATTACTACTAA [XGTACX_site346]	9.35
AAACAAATATGTAGCACACATTCACATAATATATTT [CACACA_site2335]	9.4
TTATTTATGTGTAGGGCATGCAATCGTGTTTTTAAA [TGCATGCA_site735]	9.34
GTATTTATAATACGGCGTACATAAAAAAAAAAAAAA [XGTACX_site3705]	8.63
TAATATGCATAAAATTGTACAAACTTACATATAATA [XGTACX_site2752]	9.26
TTTTCTTGACCTATTATTCTTCTCATAGTATAATAT [GTGCAC_negctrl_site641]	9.3
TTCATAGAATTATATATTTTAAAAAAAAAAATAATT [CACACA_negctrl_site175]	8.83
TTTTTTATAGGACATGCATGTTGTAGAGCTGTATAT [TGCATGCA_site704]	9.21
TGTCAAAATATGTATACACACAATTTTTTTTTTTTT [CACACA_site2465]	9.44
ATTCATTTACCAATGGTGCAATATATTTTTATAATG	9.17
TATATTACTTATATTTGTACACAGAAATATAAATCA [XGTACX_site13]	8.95
TAATAAATAAAATAGAGTACAGGGATTTCATTAAAT [XGTACX_site8979]	9.46
TTTTTCATAAGAAGCACACAAAAAATGATAGAGAAT [CACACA_site1417]	9.46
TTTAAGCAAAGACACACACACATATTTATATTTATA [CACACA_site6295]	9.84

Sequence	gcPBM binding intensity (ln)
AAACATTTATACAAAGCACACAATTTTTAACTTTTA [CACACA_site2627]	9.16
AATAAAAAAAAAAAAAAAAAAAAAAACCTGAGGAGT [CACACA_negctrl_site1140]	9.29
AACCTTTTAAGAGTTGCACACGTACAAAAAAAAAAA [CACACA_site9159]	9.27
TTATAATATATATCTGCATGTTGCTTTGGGGCTTTA [TGCATGCA_site712]	9.19
TATATTAAACAATATACACACATTAATGTAGACATA [CACACA_site8889]	9.55
GAAAATTCTTAAGGCACACACATATAAGATATATAC [CACACA_site6410]	9.68
TTTCAGACAAAAAAAAAAAAAAAAAAGAGGAGAATA [CACACA_negctrl_site254]	9.01
TTTTTTTTTTTTTTTGTGCACAATATAATTTTTAAT [GTGCAC_site9747]	9.02
TATATATATATTAATAGTACATATTATGTAAGCCTA [XGTACX_site2826]	9.3
AAAAAATACATACATACACACATATATATATATATA [CACACA_site913]	9.79
TCCTCTTATAATTCGTGTCCACATATATCATACAAT [XGTACX_site1523]	9.4
ATAAAACAAATGAGTACACACACATAAAAATTGAAA [CACACA_site7949]	9.85
TACGGATATATATATTGTACATATATATAATATATA [XGTACX_site3156]	9.07
TTATTCATAAAAACAAAAAACAAAAATGAAATAGGA [CACACA_negctrl_site1123]	9.42
TATGATATAATATACACACATACATATATATATATA [CACACA_site510]	9.39
AGAGTTCTCCTATGCACACAAAAAACTTTCATTTAT [CACACA_site4193]	9.25
TTAATATTTTATTTCACACACATAAATGCCCCAAAC [CACACA_site1887]	9.66
TAAATAAAGATATATACACACATATTTATATTTATA [CACACA_site6431]	9.42
AAATAATTTTTATTTGTACACACATACATATATATT [CACACA_site8240]	9.6
CATCATATAAATTCAAGTACAAGAAAAAGTAATATA [XGTACX_site2383]	9.36
ACAAAATTGAAATTCACACAAAAACTATACTTTTTA [CACACA_site4638]	9.19
ATATCTACTTTTTTATGTACGAAAAAAATACGGATT [XGTACX_site8937]	9.11
